The source of these data is the BET-seq Pho4 binding data (Le et al. 2018).

The other results are listed elsewhere or left out. These are noisy estimates, calculated here from bound and input reads.

This assay deals with T1, Pho4 (S. cerevisiae) (UniProt P07270).
T1 sequence: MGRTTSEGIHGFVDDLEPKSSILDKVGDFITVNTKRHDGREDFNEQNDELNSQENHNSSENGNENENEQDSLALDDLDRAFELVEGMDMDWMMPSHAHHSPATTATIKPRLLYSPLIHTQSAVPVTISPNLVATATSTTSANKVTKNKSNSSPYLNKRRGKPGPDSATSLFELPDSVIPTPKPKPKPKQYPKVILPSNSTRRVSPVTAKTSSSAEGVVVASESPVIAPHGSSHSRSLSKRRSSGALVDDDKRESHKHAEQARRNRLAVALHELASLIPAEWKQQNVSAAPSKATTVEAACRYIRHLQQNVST
Kind of assay: relative binding free energy (BET-seq); higher = weaker binding. Conditions: reference: library average.
Regarding TTGGTCACGTGATAGA, the “relative binding free energy” value turned out to be 0.33 kcal/mol. Regarding TCGGTCACGTGACTGG, the “relative binding free energy” value was determined as 0.27 kcal/mol. With ATTGGCACGTGGCCTT, the “relative binding free energy” value is -0.24 kcal/mol.

As to CGTGTCACGTGGAGCT, the “relative binding free energy” value is -0.09 kcal/mol. Next, TGTTGCACGTGGCGCT: -0.12 kcal/mol; CCGTTCACGTGTATGT: 0.26 kcal/mol; TTTTTCACGTGCTGTA: 0.36 kcal/mol.

Turning to GGATGCACGTGGTAAG, the “relative binding free energy” value worked out at 0 kcal/mol. The figure for GTGAACACGTGGTTAT is 0.02 kcal/mol; for GTATACACGTGATGGG it is 0.15 kcal/mol.

In the case of GGGGACACGTGATGTC, the “relative binding free energy” value came to 0.26 kcal/mol.

In the case of AGGATCACGTGTGTAA, the “relative binding free energy” value was determined as 0.16 kcal/mol. CGAGCCACGTGTTGGG: the “relative binding free energy” value amounted to 0.05 kcal/mol. Regarding GTGGGCACGTGCGTTG, the “relative binding free energy” value was -0.17 kcal/mol. Next, AAGAACACGTGTAAGG: 0.24 kcal/mol; CGGTGCACGTGTTGAT: 0 kcal/mol; TTGCGCACGTGCGGGC: -0.16 kcal/mol. Next, ATGGTCACGTGAGTAT: 0.32 kcal/mol; GTTCACACGTGGCGGT: -0.01 kcal/mol; TTTTTCACGTGAGGTG: 0.43 kcal/mol. Next, TTAATCACGTGCAGTG: 0.06 kcal/mol; TCTGGCACGTGAAGTA: 0.17 kcal/mol. Regarding TAAATCACGTGTAAGT, the “relative binding free energy” value worked out at 0.24 kcal/mol. Next, GAAGTCACGTGCATTT: 0.31 kcal/mol; ATTGTCACGTGGGGGT: -0.08 kcal/mol. The figure for TTTATCACGTGCTTTC is 0.09 kcal/mol; for ATTGGCACGTGACGTT it is 0.02 kcal/mol; for TAAAGCACGTGTTGGA it is -0.06 kcal/mol. Next, TATTTCACGTGCACTT: 0.28 kcal/mol. For TGCGACACGTGAGGAT, the “relative binding free energy” value came out at 0.33 kcal/mol.

Take GATGACACGTGATTGG: the “relative binding free energy” value came to 0.15 kcal/mol.

Regarding ATAGTCACGTGGCATG, the “relative binding free energy” value is -0.14 kcal/mol. With TGTCACACGTGATGGT, the “relative binding free energy” value was determined as 0.16 kcal/mol.

As to TTGAACACGTGATAGT, the “relative binding free energy” value stood at 0.07 kcal/mol. The figure for CGGAGCACGTGTGGTA is -0.05 kcal/mol; for TTTCTCACGTGTTATT it is 0.16 kcal/mol. Next, GGTGGCACGTGCCGTA: -0.18 kcal/mol; CAGAGCACGTGCTGGG: -0.04 kcal/mol.

Take ATTTACACGTGGTTGT: the “relative binding free energy” value was 0.08 kcal/mol. The figure for TAGTGCACGTGCTAAG is -0.08 kcal/mol; for TGAAGCACGTGGCGGA it is -0.14 kcal/mol. Next, TGGTACACGTGGGGGT: -0.08 kcal/mol; GCATTCACGTGTTATG: 0.25 kcal/mol; TTTGTCACGTGAATGT: 0.29 kcal/mol. In the case of GGTATCACGTGGATCG, the “relative binding free energy” value came out at 0.32 kcal/mol. Next, TGATTCACGTGAATTG: 0.36 kcal/mol; GTTCACACGTGTGTGA: 0.05 kcal/mol.

For TAGGTCACGTGCAGTT, the “relative binding free energy” value is 0.06 kcal/mol. The figure for TGACTCACGTGATTTT is 0.31 kcal/mol. Next, ATAATCACGTGAATGG: 0.28 kcal/mol; CTAAGCACGTGTTAGG: -0.06 kcal/mol; CTTTGCACGTGGATAT: -0.01 kcal/mol. As for CTTGACACGTGCTTGG, the “relative binding free energy” value is -0.06 kcal/mol. Regarding TATTGCACGTGTTGAA, the “relative binding free energy” value is -0.04 kcal/mol.

On to TTTCTCACGTGTGAGG, for which the “relative binding free energy” value was found to be 0.24 kcal/mol. The figure for TGGGCCACGTGATTGG is 0.11 kcal/mol; for TTTTTCACGTGAGTCA it is 0.32 kcal/mol; for TTGTGCACGTGTTCGA it is -0.07 kcal/mol. In the case of GATTACACGTGGTTAA, the “relative binding free energy” value amounted to 0.14 kcal/mol. The figure for TAATTCACGTGGGAAG is 0.16 kcal/mol. The figure for AAGGGCACGTGGAAGA is 0.05 kcal/mol. Next, GGGCTCACGTGGGAAG: 0.22 kcal/mol. Regarding GCTGGCACGTGGGGGG, the “relative binding free energy” value is -0.26 kcal/mol. Consider CTATTCACGTGTAGTT, for which the “relative binding free energy” value came out at 0.09 kcal/mol.

Consider AGTACCACGTGTGTTT, for which the “relative binding free energy” value was -0.06 kcal/mol. As to TGTACCACGTGGTTTT, the “relative binding free energy” value is -0.13 kcal/mol. The figure for ACTGGCACGTGATTGG is -0.07 kcal/mol; for ACTGTCACGTGTGGAT it is 0.09 kcal/mol; for GGAAGCACGTGTGAAG it is 0.11 kcal/mol.

In the case of CGATGCACGTGTTGGA, the “relative binding free energy” value stood at 0.03 kcal/mol. The figure for AATTACACGTGATGAG is 0.36 kcal/mol; for AGCATCACGTGTAGGT it is 0.04 kcal/mol.

AGAAACACGTGTGGTA: the “relative binding free energy” value came out at 0.08 kcal/mol.

For ACATTCACGTGGGGGC, the “relative binding free energy” value came out at 0.25 kcal/mol.

Take GATGGCACGTGGGTAG: the “relative binding free energy” value was -0.1 kcal/mol. With CTTTACACGTGAATTT, the “relative binding free energy” value turned out to be 0.33 kcal/mol.

On to CGGCGCACGTGTTGGG, for which the “relative binding free energy” value is -0.14 kcal/mol. The figure for GGTGTCACGTGAGTGT is 0.34 kcal/mol; for GGTAACACGTGTATAT it is 0.08 kcal/mol.

As for CGCAGCACGTGGTAGT, the “relative binding free energy” value was -0.13 kcal/mol. Next, GTAGCCACGTGATGGT: 0.16 kcal/mol; GTTTGCACGTGTGCTG: 0.13 kcal/mol. The figure for TTTGCCACGTGGGGGC is -0.18 kcal/mol; for GTGTGCACGTGCAGTG it is 0.05 kcal/mol; for GAGTACACGTGAGTTT it is 0.19 kcal/mol.

Take TTAATCACGTGTAGAT: the “relative binding free energy” value turned out to be 0.07 kcal/mol. Next, CATTTCACGTGGGCTT: 0.22 kcal/mol; GCATGCACGTGTGGCT: 0.02 kcal/mol; TGGGTCACGTGTCCGT: 0.08 kcal/mol. Consider TTTAGCACGTGGACTG, for which the “relative binding free energy” value is -0.04 kcal/mol. The figure for TGAGGCACGTGGCGGA is -0.24 kcal/mol; for ATTTTCACGTGCAGTG it is 0.33 kcal/mol. Next, GGGAGCACGTGGGGGT: -0.17 kcal/mol; TGCGACACGTGCGGGC: 0.11 kcal/mol. The figure for TTTTTCACGTGATAGT is 0.33 kcal/mol; for TCGGGCACGTGATGCG it is 0 kcal/mol. For TGTGTCACGTGTAGGG, the “relative binding free energy” value was -0.02 kcal/mol. Next, TTGCTCACGTGAGATG: 0.33 kcal/mol; TTATACACGTGGTGAT: -0.12 kcal/mol; TTAGTCACGTGGTCCG: -0.02 kcal/mol.

On to GATGACACGTGGCTTG, for which the “relative binding free energy” value stood at 0.03 kcal/mol.

Consider TGGCGCACGTGCGAAG, for which the “relative binding free energy” value was 0.13 kcal/mol. The figure for GGTAGCACGTGAGGGT is 0.27 kcal/mol; for GTTTTCACGTGACGGA it is 0.5 kcal/mol.

For the sequence ATTTGCACGTGTCAGG, the “relative binding free energy” value came to 0.1 kcal/mol. Next, TAGGTCACGTGGATGA: -0.06 kcal/mol.

Regarding TGGTCCACGTGGTGGT, the “relative binding free energy” value came out at 0.09 kcal/mol. As for GTGCTCACGTGAGTAT, the “relative binding free energy” value was 0.43 kcal/mol.

Turning to AAGTGCACGTGTCGAG, the “relative binding free energy” value was found to be 0.03 kcal/mol. Regarding TAGTTCACGTGCTATT, the “relative binding free energy” value was found to be 0.2 kcal/mol. Next, ACAGTCACGTGGTTAT: 0.04 kcal/mol; TGTGCCACGTGCGTGG: -0.24 kcal/mol. Turning to AGCGGCACGTGTATGT, the “relative binding free energy” value is -0.05 kcal/mol. Next, TTGGGCACGTGCCATG: -0.21 kcal/mol. The figure for AGGGGCACGTGTCTGC is -0.14 kcal/mol.
